Results on 19 variants are retold here after the RNAGym collection of RNA variant scans (doi:10.1073/pnas.2313332121).

Variants at the background level are over-represented here.

B1: TPR 5TU (parent)
chain: GGAUCUUCUCGAUCUAACAAAAAAGACAAAUCUGCCACAAAGCUUGAGAGCAUCUUCGGAUGCAGAGGCGGCAGCCUUCGGUGGCGCGAUAGCGCCAACGUUCUCAACUAUGACACGCAAAACGCGUGCUCCGUUGAAUGGAGUUUAUCAUG

The variants in the series derive from B1. As to the kind of experiment: polymerase ribozyme fitness, log enrichment relative to wild type (log ratio); higher = more active; in vitro selection for triplet polymerase activity. The essentials: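 Mutant libraries for each subunit of a heterodimeric triplet polymerase ribozyme were made by PCR and then transcribed. Each library underwent one round of in vitro selection in triplicate: annealing with a biotinylated primer, the partner subunit and triplets, frozen incubation at −7 °C, gel excision of extended constructs, streptavidin-bead capture and RT-PCR. Input and output libraries were Illumina-sequenced, and only genotypes with ≥10 input reads and ≥1 read per output were kept. Fitness is the logarithm, base 2, of genotype enrichment over wild-type enrichment, computed from inverse-variance-weighted replicate averages.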
Consider GGAUCUUCUCGAUCUAACAAAAAAGACAAAUCUGCCACAAAGCUUGAGAGCAUCUACGGAUGCAGAGGCGGCAGCCUUCGGUGGGGCGAUAGCGCCAACGUUCUCAACUAUGACGCGCAAAACGCGUGCUCCGUUGAAUGGAGUUUAACAUG, for which the “polymerase ribozyme fitness (log ratio)” value was at most -4.2.
GGAUCUUCUCGAUCUAACAAAAAAGACAAAUCUGCCACAAAGCUUGAGAGCAUCUAAGGAUGCAGAGGCGGCAGCCUUCGGUGACGCGAUAGCGCCAACGUUCUCAACUAUGACACGCAAAACGCGUGCUCCGUUGAAUGGAGUUUAUCAUG: the “polymerase ribozyme fitness (log ratio)” value was -0.56.
Turning to GGAUCUUCUCGAUCUAACAAAAAAGACAAAUCUGCCACAAAGCUUGAGAGCAUCGUCGGAUGCAGAGGCGGCAGCCUUCGGUGGCGCCAUAGCGCCAACGUUCUCAACUAUGACACGCAAAACGCGUUCUCCGUUGAAUGGAGUUUAUCAUG, the “polymerase ribozyme fitness (log ratio)” value was at most -4.2.
The figure for GGAUCUUCUCGAUCUAACAAAAAAGACAAAUCUGCCACAAAGCUUGAGAGCAUCUACGGAUGCAGAGGCGGCAGCCUUCGGUGGCGCGAUUGCGCCAACGUUCUCAACUAUGACACGCAAAACGUGUGCUCUGUUGAAUAGAGUUUAACAUG is at most -4.2; for GGAUCUUCUCGAUCUAACAAAAAAGACAAAUCUGCCACAAAGCUUGAGAGCAUCUACGGAUGCAGAGGCGGCAGCCUUCGGUGGCGCGAUAGCGCUAACGUUCUCAACUAUGACACGCAAAACGCGUGCUCCGUUGAUUGGAGUUUAUCAUG it is -4.06; for GGAUCUUCUCGAUCUAACAAAAAAGACAAAUCUGCCACAAAGCUUGAGAGCAUCUAUGGAUGCAGAGGCGGCAGCCUUCGGAGACGCGAUAUCGCCAACGUUCUCCACUAUGACACGCAAAACGCGUGCUCCGUUGAAUGGACUUUAUCAUG it is at most -4.2.
On to GGAUCUUCUCGAUCUAACAAAAAAGACAAAUCUGCCACAAAGCUUGAGAGCAUCUACGGAUGCAGAGGCGGCAGCCUUCGGUGGCGAGAUAGCGCCAACGUUGUCAACUAUGACACGCAAAACGCGUGCUCCGGUGAAUGGAGUUUAUCAUG, for which the “polymerase ribozyme fitness (log ratio)” value was at most -4.2.
Turning to GGAUCUUCUCGAUCUAACAAAAAAGACAAAUCUGCCACAAAGCUUGAGAGCAUCUACGGAUGCAGAGGCGGCAGCCUUAGGUGACGCGAUAGCGCCAACGUACUCAACUAUGACACGCAAAACGCGUUCUCCGUUGAAUGGAGUUUAUCAUG, the “polymerase ribozyme fitness (log ratio)” value is at most -4.2.
Turning to GGAUCUUCUCGAUCUAACAAAAAAGACAAAUCUGCCACAAAGCUUGAGAGCAUCUACGGAUGCAGCGGCGGUAGCCUUCGGUGGCGCGAUAAUGACAACGUUCUCAACUAUGACAAGCAAAACGCGUGCUCCGUUGAAUGGAGUUUAUCAUG, the “polymerase ribozyme fitness (log ratio)” value was at most -4.2.
As for GGAUCUUCUCGAUCUAACAAAAAAGACAAAUCUGCCACAAAGCUUGAGAGCAUCUACGGAUGCAGAGGCGGCAGCCUUCGGUGGCGCGAUAGCGCCUACGUUCUCAACUAUGACACGCAAAACGCGUGCUCCGUUGAAUGGAGUUUAUCAUG, the figure is -1.47; as for GGAUCUUCUCGAUCUAACAAAAAAGACAAAUCUGCCACAAAGCUUGAGAGCAUCUACGGAUGCAGAGGCGGCAGCCUUCGGUGGCGCGAUUGCGCCAACGUUCUCAACUAUGACACGCAACACGCGUGCUCCGUUGAAUGGAGUUUAUCAUG, at most -4.2.
Take GGAUCUUCUCGAUCUAACAAAAAAGACAAAUCUGCCACAAAGCUUGAGAGCAUCUACGGAUGCAGAGGCGGCAGCCUUCGGUGGCGGGAUAGCCCCAACGUUCCCAACUAUGACACUCUAAACGCGUGCUCCGCUGAAUGGAGUUUAUCAUG: the “polymerase ribozyme fitness (log ratio)” value is -3.94.
In the case of GGAUCUUCUCGAUCUAACAAAAAAGACAAAUCUGCCACAAAGCUUGAGAGCAUCGUCGGAAGCAGAGGCGGCAGCCUUCGGUGUCGCGAUAGCGCCAACGUUCUCAACUAUGAUACGCAAAACGCGUGCUCCGUUGAAUGGAGUUUAUCUUG, the “polymerase ribozyme fitness (log ratio)” value was at most -4.2.
Take GGAUCUUCUCGAUCUAACAAAAAAGACAAAUCUGCCACAAAGCUUGAGAGCAUCUACGGAUGCAGAGGCGGCAGCAUUCGGUGGCGCGAUAGCGCCAACGUUCUCAACUAUGACACGCUACACGCUUGCUCCGUUGAAUGGAGUUUAUCAUG: the “polymerase ribozyme fitness (log ratio)” value was -1.11.
Consider GGAUCUUCUCGAUCUAACAAAAAAGACAAAUCUGCCACAAAGCUUGAGAGCAUCUAGGGAUGCAGUGGCGGCAGCCUUCGGUGACGCGAUAGCGCCAGCGUUAUCAACUAUGACACGCAAAACGAGUGCUCCGUUGAAUGGAGUUUAUCAUG, for which the “polymerase ribozyme fitness (log ratio)” value is at most -4.2.
GGAUCUUCUCGAUCUAACAAAAAAGACAAAUCUGCCACAAAGCUUGAGAGCAUCUACGGAUGCAGAGGCGGCAGCCUUUGGUGGAGCGAUAGCGCCAACGUUCUCAACUAUGACACGCAAAACGCGUGCUCCGUUGAAUGGAGUUUAUCAUG: the “polymerase ribozyme fitness (log ratio)” value is at most -4.2.
Consider GGAUCUUCUCGAUCUAACAAAAAAGACAAAUCUGCCACAAAGCUUGAGAGCAUCUACGGAUGCAGAGGCGGCAGCCUUCGGUGGCGCGUUAGCGCGAACGUUCUCAACUAUGACACGCAAAACGCGUGCUCCGUUGAAUGGAGUUUAUCAUG, for which the “polymerase ribozyme fitness (log ratio)” value was -1.
Regarding GGAUCUUCUCGAUCUAACAAAAAAGACAAAUCUGCCACAAAGCUUGAGAGCAUCGGCGGAUGCAGACACGGCAGCCUUCGGUGGCGCGAUAGCGCCAACGUUCUCAACUAUGACACACAAAACGCGUGCUCCGUUGAAUGGAGUUUAUCAUG, the “polymerase ribozyme fitness (log ratio)” value is at most -4.2.
Regarding GGAUCUUCUCGAUCUAACAAAAAAGACAAAUCUGCCACAAAGCUUGAGAGCAUCUACGGAUGCAGAGGCGGCAGCCUUCGGUGGCGCGAUAGAGCCAUCGUUCUCAGCUAUGACACGCAAAACGCGUGUUCCGUUGAAUGGAGUUUAUCAUG, the “polymerase ribozyme fitness (log ratio)” value was at most -4.2.
